The values that follow come from paper PMC12136788.

T1: UNK ZnF1-3 (human, UniProt Q9C0B0 31-174)
T1 sequence: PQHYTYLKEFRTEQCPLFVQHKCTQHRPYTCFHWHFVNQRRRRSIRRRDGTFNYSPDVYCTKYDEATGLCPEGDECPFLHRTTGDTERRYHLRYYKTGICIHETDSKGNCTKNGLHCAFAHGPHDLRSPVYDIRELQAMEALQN

B1: chr2:30381511:30381512:+_ENSG00000119801_ENST00000261353|hu_mus|motif|central (ssRNA)
RNA: GGGAGUUCUACAGUCCGACGAUCCAUGUGGCGGCCAGUGAGCAUGACCCGAUCUUGAACUUCACUGUACUGCAAGUUAACGGCCUUGUUAAAAAGAAAUGCUCUACCAGUGGCGCCUGUGAACCGAGUAGAGAUGAGUUCUGACAACAGAGGAUUGAGCAUCA
B2: chr10:7844279:7844280:+_ENSG00000165629_ENST00000356708|hu_hu|FALSE|FALSE (ssRNA)
RNA: GGGAGUUCUACAGUCCGACGAUCCUCAGAAGCAUUCUUGCUGGCAUUGUCCAUGGCUGUCAUCCUGGCACUCUGCUCACUAGUGGUGGACUCCUUCAGAGAGUAGUAGAUGAUGUUGGCCAGAUUGUAUUCUUGGUAAUUUUGCAACAGAGGAUUGAGCAUCA
B3: 49385543_49387563_1208_CDS_ENSMUSG00000069495_ENSMUST00000092123|mouse|control|control (ssRNA)
RNA: GGGAGUUCUACAGUCCGACGAUCCUUAGUUUUACAUUCUUGAACUUUGUGAUGAUUUCCAUUAUGAAGGGUUGCUGGACUGGCAUAUAACUCUUUUUCUGAUCUAUUAACUUUCACUUCAUUAAGGAUUUCACCCCCAUAGUCCAACAGAGGAUUGAGCAUCA
B4: 118375313_118375433_8789_CDS_ENSG00000118058_ENST00000534358|human|control|control (ssRNA)
RNA: GGGAGUUCUACAGUCCGACGAUCGGGACUCCGGGUGGUCAAGACAGACAGAUCAGAUGGUAGCUCUAGAGGCAACUCAAACUGUUCCUCUGCUGAGAUAGAGGAAGAGACACUACUAUCCACAGGUUCUGUUGUAGGCAGCUGCAACAGAGGAUUGAGCAUCA
B5: chr11:118268936:118268937:-_ENSMUSG00000025575_ENSMUST00000017620|mus_mus|motif|central (ssRNA)
RNA: GGGAGUUCUACAGUCCGACGAUCACCCCUUGCUCCCAGUCUCCGAGCAGUACACCCAUAUGGGCCGGGGCUCAGCUCCCGGUAAUGAAAUUCUCUAGCCAGGAACACAGCUCUUAGUUAAAAAAAGAAAAAAAGCAAACGAGUCAACAGAGGAUUGAGCAUCA
B6: 97535135_97535255_1580_CDS_ENSMUSG00000038437_ENSMUST00000044730|mouse|control|control (ssRNA)
RNA: GGGAGUUCUACAGUCCGACGAUCAGUGAAGCCAGCGAGCUGAGCCGCAGGGAGGGAGGCAGUCGGGCCUGAAGCACCCUCCUUGCCUCUGCUCCCUUUGGGUCGGCCUGGCCCGUGUCGGCUCCUUUUGCUGGCUUUGUGUUUCAACAGAGGAUUGAGCAUCA
B7: chr7:151048522:151048523:+_ENSG00000013374_ENST00000566856|hu_mus|hu_hu_hu_mus_True|8_108 (ssRNA)
RNA: GGGAGUUCUACAGUCCGACGAUCCUGCUUCUUAUUUAUUACGAUCUUGAUGUAAUUUUCUUGAAAUCCGAAAGUUUCAGCUAUUUGACACCUCAGGUCUCUACCAGUGACAUGCAAGCGGGUCUCCAACAAGUUUUUCUUAUCCAACAGAGGAUUGAGCAUCA
B8: chr12:39756943:39756944:-_ENSG00000139116_ENST00000544797|hu_mus|hu_hu_hu_mus_False|48_58 (ssRNA)
RNA: GGGAGUUCUACAGUCCGACGAUCGGUUUGGCUGUUACCCCCAAGGGAAUCCUGCAAGAGUCUUGUCAGCUUAGAGUCUCUAUAGGGGACAUGUGUGGCUCUCUUGCUCUUGUCCCCCAAGGCGCUGAUUACAUUCCCAAGAGCCAACAGAGGAUUGAGCAUCA
B9: chr2:217001844:217001845:+_ENSG00000079246_ENST00000392132|hu_hu|hu_hu_hu_mus_False|38_68 (ssRNA)
RNA: GGGAGUUCUACAGUCCGACGAUCACCAACUUGAGGAUUAGAUCUUUUGUCAUAAGCAUAUCGGACGAUGGCCACCAUGUUUAACUCAUCCAAAGCAUGAAUCAGGGAGGAAAGGGCAACAGCUGCCGCCUCAUCAUCCUUUGCCAACAGAGGAUUGAGCAUCA
B10: chr2:125499325:125499326:+_ENSMUSG00000091337_ENSMUST00000164756|mus_mus|motif|central (ssRNA)
RNA: GGGAGUUCUACAGUCCGACGAUCGAGCUCUUCGGUCAGUCGAUUGACAACCAUCAGCGAAAACAGCUCUUCGAUAAAAGCGGGCUGGUCGAAAGGGCUCUUCUCACACCGCGCCUGAAAGCCGCCAUCCAGGGCAUCUCCGGCCAACAGAGGAUUGAGCAUCA
B11: 41411286_41411406_1835_CDS_ENSMUSG00000021365_ENSMUST00000163623|mouse|control|control (ssRNA)
RNA: GGGAGUUCUACAGUCCGACGAUCCUGCAUCUGGGAGCCCGGAUGUGUGUACUCGCUUGAGUUCAUGAUGCUGUUGGGCCCAUUCUUCAGAUGGGAAUUGGCAGGAUCUGCUCUAAAGAGGGUCUCCGCGUAGGUGCUGAUGGUCAACAGAGGAUUGAGCAUCA
B12: chr11:19991362:19991363:-_ENSMUSG00000020152_ENSMUST00000000137|mus_mus|FALSE|FALSE (ssRNA)
RNA: GGGAGUUCUACAGUCCGACGAUCCAAAGUCAGAACUGCCUGGAUGGCUACAUACACACCAGAAAACUGGUAAGUUUCAAACAUUACCUCUACAAUCUUCUCUCUGUUUUUGGUUGGAUUCAUGGGAGGUUCUGUAAGUAAAAUCAACAGAGGAUUGAGCAUCA
B13: 34055096_34055216_1498_CDS_ENSMUSG00000051390_ENSMUST00000053429|mouse|control|control (ssRNA)
RNA: GGGAGUUCUACAGUCCGACGAUCUAUGCCCAGCCCCACCGCAGAGGUGCCCCCGAGGGUCACUGCCCCGUGCUCAGCUGUGUUCCCUGGUGGCUGGCCUGGAGCCUGUGAAGAGGAGGAUGGGAAAACCAAGAUCUGGUUGCCCAACAGAGGAUUGAGCAUCA
B14: chr5:71490253:71490254:+_ENSG00000131711_ENST00000296755|hu_mus|FALSE|FALSE (ssRNA)
RNA: GGGAGUUCUACAGUCCGACGAUCCUUGAUGUUGGGUUCUGGGUCUUUCAGGUUUUCAGGUACGUUGAGAAACACAACCCCCAGGUCAGGGGAGAUGAGGUUUUUCAUCCAGUCACUGUUGCUGGUGGACCCCUGGGACCGCUCCAACAGAGGAUUGAGCAUCA
B15: chr2:5814250:5814251:-_ENSMUSG00000025816_ENSMUST00000102981|mus_hu|mus_mus_mus_hu_True|38_68 (ssRNA)
RNA: GGGAGUUCUACAGUCCGACGAUCUUCCUUUCCGGUUUCUGAAUUUCUGGUAGAACUGCACAGAAUGGUUUAAUAACUUCUAAAAAUUUGAUGCCCAUGGCGGCGGCUGGGGAGGCCCAGGGGGAAACCGCGGCCUCGGCGCUGCAACAGAGGAUUGAGCAUCA
B16: chr10:92717539:92717540:-_ENSMUSG00000008398_ENSMUST00000008542|mus_mus|FALSE|FALSE (ssRNA)
RNA: GGGAGUUCUACAGUCCGACGAUCCUGGAAAAGUGUGUUCGGCCCUUGCAGCCUGGCAGGACUCAGUGGGGCGACAGGACUAAGGCUGCUCCAGAAGUGUAUGCUGGGCAGCAGCGGACUCGAGGCCAGAAACAGUCCACUUGGCAACAGAGGAUUGAGCAUCA
B17: chr7:97110809:97110810:-_ENSMUSG00000030619_ENSMUST00000107234|mus_hu|FALSE|FALSE (ssRNA)
RNA: GGGAGUUCUACAGUCCGACGAUCGCCACUCUUAGAAAGUAUCAAAUCGCCUAACCAUCGCACACAAUCAACAUAAUUCCUAUGUAUGUCUCUGGUAGAAAAAUCAGGAAAAUGGAUUUUCUGAGAAAUAAAUGGCCUGUUAGUCAACAGAGGAUUGAGCAUCA
B18: chr6:42301883:42301884:+_ENSMUSG00000029860_ENSMUST00000070635|mus_mus|FALSE|FALSE (ssRNA)
RNA: GGGAGUUCUACAGUCCGACGAUCCUGUGGGUGCUGCUUCUCUUGAACUAGGGGCUUCUCCUUCUGCUGAGCAUAGGUGAAGCUAGGGGGCUGAGGGGAGCCUGUGCUCACAGAAGAAGGAGCAUCCGGAGGCACCAUUUUUUGCAACAGAGGAUUGAGCAUCA
B19: 75715086_75722569_389_CDS_ENSG00000169375_ENST00000360439|human|control|control (ssRNA)
RNA: GGGAGUUCUACAGUCCGACGAUCUGUUGGGUGAUGAUGGCUGCUAUGAACUGCUGCUAUAGCGGGCCCAUGACUGCCGGAGCUCUGUGGCAUGGCUGAAACCUGGUAGCUGGGUGUUACAGAGUACUGAAUUCCCGUAGCUGACAACAGAGGAUUGAGCAUCA
B20: chr2:29004620:29004621:+_ENSG00000213639_ENST00000296122|hu_hu|FALSE|FALSE (ssRNA)
RNA: GGGAGUUCUACAGUCCGACGAUCCAAUUUAAUAUUAAAUCUUCGUUUGCAUUCAUCAUAGAAUCCAUAAAUGCGAUUGAUGCUAGCACACUCAUGGUUUCCUCUUAAGAGAAAGAAGUUCUCUGGAUAUUUGAUUUUAUAAGCCAACAGAGGAUUGAGCAUCA
B21: chr14:92597410:92597411:+_ENSG00000165934_ENST00000298875|hu_hu|FALSE|FALSE (ssRNA)
RNA: GGGAGUUCUACAGUCCGACGAUCGGAAUCAAUAAUAUCCAUAGAAAAGUGCUCAUCCCAGCCACAGUCCAAUAAAAAUCUAAACUCAUCAACUUGGAGAAGAUAGCAAAGGGCAGAUUCUUCUUGGACCCCAGAAAGGGUAGUCAACAGAGGAUUGAGCAUCA
B22: chrX:101156880:101156881:-_ENSMUSG00000056537_ENSMUST00000070705|mus_mus|FALSE|FALSE (ssRNA)
RNA: GGGAGUUCUACAGUCCGACGAUCGAAUAUGGUCCAUUCUUCAGGGCCGUUUUCUUCACCAUCAUGUAUCACUUCCUGCCUAAAUCCAAGUUAAAAUACAUGCUCUCCAUUGGUCUUCAAUGCAGCUGGGUUCUGCACGGUCCUCAACAGAGGAUUGAGCAUCA

Some of the results follow.

The assay deals with T1, UNK ZnF1-3. Description: nsRBNS (natural sequence RNA bind-n-seq); RBNS binding buffer (assumed for nsRBNS): 25 mM Tris pH 7.5, 150 mM KCl, 3 mM MgCl2, 0.01% Triton X-100, 500 ug/ml BSA, 20 U/ml SUPERase-In, 4 C; UNK is unkempt and MSI1 is Musashi-1; names of the RNAs are library labels; protein concentration not given here; high values mean tight binding.
In the case of B1, the binding signal came to 1.22 enrichment R.

B2 had a binding signal of 0.698 enrichment R.

As to B3, the binding signal was found to be 0.659 enrichment R.

B4 showed a binding signal of 1.53 enrichment R.

B5 yielded a binding signal of 1.78 enrichment R.

As to B6, the binding signal amounted to 0.238 enrichment R.

In the case of B7, the binding signal was determined as 0.715 enrichment R.

Take B8: the binding signal is 0.756 enrichment R.

Molecule B9 had a binding signal of 1.61 enrichment R.

B10 showed a binding signal of 1.04 enrichment R.

B11 registered a binding signal of 0.866 enrichment R.

In turn, B12 displayed a binding signal of 1.42 enrichment R.

On to B13, for which the binding signal was 1.31 enrichment R.

Take B14: the binding signal stood at 0.841 enrichment R.

The molecule B15 had a binding signal of 1.8 enrichment R.

The molecule B16 registered a binding signal of 1.15 enrichment R.

Turning to B17, the binding signal worked out at 1.2 enrichment R.

Turning to B18, the binding signal turned out to be 1.27 enrichment R.

Regarding B19, the binding signal came to 1.03 enrichment R.

For B20, the binding signal was determined as 1.03 enrichment R.

B21 came in with a binding signal of 1.99 enrichment R.

In the case of B22, the binding signal was 0.623 enrichment R.
